We go through three molecules from US20260176373A1.

The target of test [1] is endogenous HER2 and TROP2 on tumor cells expressing both. The test is described as follows: flow cytometry whole cell binding, NCI-H441 cells (TROP2 very high, HER2 very low).
For test [2] the target is unchanged. The test is described as follows: cell-based or functional assay.
Test [3] has the same target. The test can be described thus: flow cytometry whole cell binding, SKBR3 cells (HER2 and TROP2 both expressed). Background: In flow cytometry, cells or beads pass a laser one at a time.
Test [4] has the same target. The test can be described thus: flow cytometry whole cell binding, HCC202 cells (HER2 and TROP2 both expressed).
Test [5] shares this target. The test is described as follows: cell-based or functional assay. This is another data set of the same source.

B1: 1H11-hv8+11D5_Fc (bispecific antibody)
chain: EVQLVESGGGLVQPGGSLRLSCAASGGTFSRYIMGWFRQAPGKEREFVSTISGSGGSTYYADSVKGRFTISRDNSKNTLYLQMNSLRAEDTAVYYCASTFYSTTYVAQRDARDYAYWGQGTQVTVSSGSGGSGGSGGSGQVQLVESGGGVVQPGRSLRLSCAASGSTFSSLAMHWVRQAPGKERELVAAISYSGGYTYYADSVKGRFTISRDNSKNTLYLQMNSLRAEDTAVYYCAASSIFIGAYDYWGQGTLVTVSS[here human IgG1 Fc with C220S (EU numbers) without letters]
In test [1], B1 came in with an EC50 of 5.3 nM. For the same molecule, in test [2], the IC50, nM, Killing of HCC202 cells by 2nd Ab-MMAE was 0.11 nM and the IC50, nM, Killing of SKBR3 cells by 2nd Ab-MMAE amounted to 0.131 nM.

B2: 1H11-hv8_Fc_11D5 (bispecific antibody)
chain: EVQLVESGGGLVQPGGSLRLSCAASGGTFSRYIMGWFRQAPGKEREFVSTISGSGGSTYYADSVKGRFTISRDNSKNTLYLQMNSLRAEDTAVYYCASTFYSTTYVAQRDARDYAYWGQGTQVTVSS[here human IgG1 Fc with C220S (EU numbers) without letters]GSGGSGGSGGSGGSGQVQLVESGGGVVQPGRSLRLSCAASGSTFSSLAMHWVRQAPGKERELVAAISYSGGYTYYADSVKGRFTISRDNSKNTLYLQMNSLRAEDTAVYYCAASSIFIGAYDYWGQGTLVTVSS
B2: the values for the half-maximal effective concentration (EC50) in test [3], in test [4] and in test [1] were 0.99 nM, 1.58 nM and 2.58 nM, respectively. In test [2], this molecule came in with an IC50, nM, Killing of HCC202 cells by 2nd Ab-MMAE of 0.08 nM. This molecule came in with an IC50, nM, Killing of SKBR3 cells by 2nd Ab-MMAE in test [2] of 0.101 nM.

B3: 1H11-hv8_Fc_11D5-2C_MMAE (protein)
chain: EVQLVESGGGLVQPGGSLRLSCAASGGTFSRYIMGWFRQAPGKEREFVSTISGSGGSTYYADSVKGRFTISRDNSKNTLYLQMNSLRAEDTAVYYCASTFYSTTYVAQRDARDYAYWGQGTQVTVSS[here human IgG1 Fc with C220S (EU numbers) without letters]GSGGSGGSGGSGGSGQVQLVESGGGVVQPGRSLRLSCAASGSTFSSLAMHWVRQAPGKERELVAAISYSGGYTYYADSVKGRFTISRDNSKNTLYLQMNSLRAEDTAVYYCAASSIFIGAYDYWGQGTLVTVSS
modifications: here or on the partner: vc-MMAE conjugated to the hinge cysteines (2 Cysteines in each hinge region); DAR 3.7
In test [5], B3 displayed an IC50, nM, in killing assay, A431 cells of 0.17 nM; an IC50, nM, in killing assay, AU-565 cells of 0.0198 nM; an IC50, nM, in killing assay, Colo205 cells of 0.33 nM; an IC50, nM, in killing assay, N87 cells of 0.04 nM. Further, in test [5], the IC50, nM, in killing assay, NCI-H441 cells was 0.046 nM; the IC50, nM, in killing assay, NCI-H1975 cells came to 0.24 nM; the IC50, nM, in killing assay, OE-19 cells is 0.069 nM; the IC50, nM, in killing assay, SK-OV3 cells is 0.062 nM. This molecule displayed an IC50, nM, in killing assay, T-47D cells in test [5] of 0.22 nM.

Usually EC50 stands for the midpoint of the concentration-response curve. Low values mean an effect from little substance, high ones a need for much substance.
